Test results as given in the supplement of paper PMC7826260.
The other results are listed elsewhere or left out. Cleavage of a single-stranded DNA pool by Rep nickase domains was read by sequencing at 3 µM enzyme and 37 °C for 1 h; the strands have 90 letters, of which the middle is given. The score is log2 (uncut reads / reads without enzyme); strong cutting gives strongly negative numbers. There is no active / inactive call. Shares of all reads are compared; where an enzyme cuts many sequences, the uncut ones exceed 0.

system: T1, Rep nickase domain of Muscovy duck circovirus; test: uncleaved DNA left, log2 of reads against the no-enzyme library (log2 ratio); higher = less cleavage (more negative = more Rep cleavage of the k-mer); sequences stand for … in CTCGTCCG…ACCGGAGA
T1 sequence (residues 1-111, tag not shown): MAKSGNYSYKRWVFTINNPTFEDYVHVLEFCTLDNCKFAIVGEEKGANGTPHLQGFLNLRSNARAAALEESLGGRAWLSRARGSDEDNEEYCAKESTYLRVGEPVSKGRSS
Procedure: (§1)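 A pool of 90-nt single-stranded DNAs with seven random bases just before the constant AC of the nick site (name = the seven bases) was cut by 3 µM recombinant His6-SUMO-tagged Rep nickase domain (300 nM DNA, 50 mM HEPES pH 8.0, 50 mM NaCl, 1 mM MnCl2, 1 h, 37 °C, three replicates). Uncut DNA was amplified and sequenced.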

Row | Sequence | uncleaved DNA left (log2)
1 | CTAATCG | -0.0151
2 | CTGGATT | 0.234
3 | ATTACGA | -0.0195
4 | CAGACAT | -0.012
5 | GCGAGGA | 0.0778
6 | CCACTTC | 0.127
7 | TGACTAC | 0.0881
8 | GGCACAT | 0.0265
9 | ATCCGCC | -0.0505
10 | GTAGCTC | -0.131
11 | CAAAACA | -0.0196
12 | GCATTAC | -0.0974
13 | ATTCTCA | -0.106
14 | AATTTCA | -2.8
15 | ACAAGAT | 0.0908
16 | GACTCAT | -0.124
17 | TGACGAA | -0.0244
18 | TCAGTCA | -0.00487
19 | TGCGCAC | 0.0406
20 | AAGGCTT | 0.0507

Row | Sequence | uncleaved DNA left (log2)
21 | CTAGTCG | -0.0906
22 | GCGCGCG | 0.0494
23 | TGAAACA | -0.0199
24 | TGCTGAA | -0.00425
25 | CAATAAC | 0.0448
26 | TTGCACT | -0.13
27 | GTCGGGG | 0.06
28 | ACACGCG | 0.00717
29 | GTTCCGC | 0.0635
30 | AATTTAA | -0.615
31 | ATGATTG | 0.0743
32 | CGGATGA | 0.0952
33 | TAGCTTG | -0.0136
34 | GTCGTAA | 0.105
35 | CCGGACA | -0.195
36 | TGTTCCA | -0.0135
37 | GCACGCT | -0.0834
38 | ACAATGG | 0.0433
39 | TCGGATA | 0.00205
40 | CCCGCCT | -0.264

system: T2, Rep nickase domain of banana bunchy top virus; test: as above
T2 sequence (residues 1-94, tag not shown): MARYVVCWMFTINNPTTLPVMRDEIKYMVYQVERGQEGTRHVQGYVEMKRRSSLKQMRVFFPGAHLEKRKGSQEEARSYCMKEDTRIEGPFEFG
Procedure: as §1

Row | Sequence | uncleaved DNA left (log2)
41 | CTAATCG | -0.0524
42 | CTGGATT | 0.164
43 | ATTACGA | -0.0572
44 | CAGACAT | 0.18
45 | GCGAGGA | 0.0354
46 | CCACTTC | -0.0823
47 | TGACTAC | 0.114
48 | GGCACAT | 0.159
49 | ATCCGCC | -0.0106
50 | GTAGCTC | -0.0654
51 | CAAAACA | 0.0663
52 | GCATTAC | -0.0257
53 | ATTCTCA | 0.0298
54 | AATTTCA | -0.859
55 | ACAAGAT | 0.0575
56 | GACTCAT | -0.0269
57 | TGACGAA | -0.0737
58 | TCAGTCA | 0.0327
59 | TGCGCAC | -0.031
60 | AAGGCTT | -0.0907

Row | Sequence | uncleaved DNA left (log2)
61 | CTAGTCG | -0.199
62 | GCGCGCG | -0.0375
63 | TGAAACA | 0.0493
64 | TGCTGAA | -0.129
65 | CAATAAC | 0.0634
66 | TTGCACT | -0.141
67 | GTCGGGG | 0.13
68 | ACACGCG | 0.103
69 | GTTCCGC | 0.0946
70 | AATTTAA | -0.187
71 | ATGATTG | -0.0476
72 | CGGATGA | 0.0227
73 | TAGCTTG | -0.0808
74 | GTCGTAA | 0.262
75 | CCGGACA | -0.122
76 | TGTTCCA | -0.0368
77 | GCACGCT | -0.0623
78 | ACAATGG | 0.0385
79 | TCGGATA | 0.018
80 | CCCGCCT | -0.123

system: T3, Rep nickase domain of cabbage leaf curl virus; test: as above
T3 sequence (residues 1-116, tag not shown): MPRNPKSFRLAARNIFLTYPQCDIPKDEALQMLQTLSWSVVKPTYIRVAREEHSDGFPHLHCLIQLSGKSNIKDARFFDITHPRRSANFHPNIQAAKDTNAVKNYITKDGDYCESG
Procedure: as §1

Row | Sequence | uncleaved DNA left (log2)
81 | CTAATCG | -0.776
82 | CTGGATT | 0.302
83 | ATTACGA | -0.198
84 | CAGACAT | 0.78
85 | GCGAGGA | 0.227
86 | CCACTTC | -0.0761
87 | TGACTAC | 0.279
88 | GGCACAT | 0.923
89 | ATCCGCC | -0.146
90 | GTAGCTC | 0.345
91 | CAAAACA | -0.541
92 | GCATTAC | -0.103
93 | ATTCTCA | -0.00606
94 | AATTTCA | -0.509
95 | ACAAGAT | -0.072
96 | GACTCAT | 0.303
97 | TGACGAA | 0.144
98 | TCAGTCA | 0.128
99 | TGCGCAC | -0.145
100 | AAGGCTT | 0.255

Row | Sequence | uncleaved DNA left (log2)
101 | CTAGTCG | -0.995
102 | GCGCGCG | -0.588
103 | TGAAACA | 0.386
104 | TGCTGAA | 0.181
105 | CAATAAC | -1.59
106 | TTGCACT | -0.503
107 | GTCGGGG | 0.649
108 | ACACGCG | 0.389
109 | GTTCCGC | 0.211
110 | AATTTAA | -0.126
111 | ATGATTG | -0.0829
112 | CGGATGA | 0.0927
113 | TAGCTTG | 0.0723
114 | GTCGTAA | 0.41
115 | CCGGACA | 0.507
116 | TGTTCCA | 0.213
117 | GCACGCT | -0.421
118 | ACAATGG | -0.686
119 | TCGGATA | 0.243
120 | CCCGCCT | -0.393

system: T4, Rep nickase domain of chickpea chlorotic dwarf virus; test: as above
T4 sequence (residues 1-124, tag not shown): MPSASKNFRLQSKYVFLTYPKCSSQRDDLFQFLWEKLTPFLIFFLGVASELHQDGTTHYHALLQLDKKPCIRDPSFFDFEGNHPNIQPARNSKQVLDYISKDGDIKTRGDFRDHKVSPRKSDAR
Procedure: as §1

Row | Sequence | uncleaved DNA left (log2)
121 | CTAATCG | 0.163
122 | CTGGATT | 0.498
123 | ATTACGA | -1.1
124 | CAGACAT | 1.9
125 | GCGAGGA | 0.564
126 | CCACTTC | -0.684
127 | TGACTAC | -0.226
128 | GGCACAT | 2.13
129 | ATCCGCC | -0.252
130 | GTAGCTC | 0.696
131 | CAAAACA | -2.35
132 | GCATTAC | -0.664
133 | ATTCTCA | -1.21
134 | AATTTCA | -2.61
135 | ACAAGAT | -0.00215
136 | GACTCAT | -0.131
137 | TGACGAA | 0.316
138 | TCAGTCA | -1.02
139 | TGCGCAC | -0.0636
140 | AAGGCTT | 0.623

Row | Sequence | uncleaved DNA left (log2)
141 | CTAGTCG | -0.303
142 | GCGCGCG | 0.429
143 | TGAAACA | -0.315
144 | TGCTGAA | 0.465
145 | CAATAAC | -2.94
146 | TTGCACT | -1.66
147 | GTCGGGG | 0.984
148 | ACACGCG | 1.78
149 | GTTCCGC | 0.658
150 | AATTTAA | -0.696
151 | ATGATTG | 0.623
152 | CGGATGA | 0.807
153 | TAGCTTG | 0.393
154 | GTCGTAA | 0.948
155 | CCGGACA | 1.14
156 | TGTTCCA | 0.0137
157 | GCACGCT | -1.46
158 | ACAATGG | -0.57
159 | TCGGATA | 0.732
160 | CCCGCCT | -1.81

system: T5, Rep nickase domain of faba bean necrotic yellows virus; test: as above
T5 sequence (residues 1-98, tag not shown): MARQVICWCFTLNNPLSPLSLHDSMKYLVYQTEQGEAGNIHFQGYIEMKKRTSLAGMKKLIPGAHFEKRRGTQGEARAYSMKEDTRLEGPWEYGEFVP
Procedure: as §1

Row | Sequence | uncleaved DNA left (log2)
161 | CTAATCG | 0.0435
162 | CTGGATT | 0.209
163 | ATTACGA | -0.0673
164 | CAGACAT | -0.0218
165 | GCGAGGA | -0.0865
166 | CCACTTC | 0.00807
167 | TGACTAC | 0.0406
168 | GGCACAT | 0.113
169 | ATCCGCC | 0.059
170 | GTAGCTC | -0.0761
171 | CAAAACA | 0.11
172 | GCATTAC | 0.00337
173 | ATTCTCA | 0.0257
174 | AATTTCA | -0.0861
175 | ACAAGAT | 0.0881
176 | GACTCAT | -0.064
177 | TGACGAA | -0.0177
178 | TCAGTCA | -0.0464
179 | TGCGCAC | -0.0709
180 | AAGGCTT | -0.00928

Row | Sequence | uncleaved DNA left (log2)
181 | CTAGTCG | -0.0884
182 | GCGCGCG | 0.00266
183 | TGAAACA | -0.0159
184 | TGCTGAA | -0.00761
185 | CAATAAC | 0.0911
186 | TTGCACT | -0.0776
187 | GTCGGGG | 0.0108
188 | ACACGCG | 0.14
189 | GTTCCGC | -0.0269
190 | AATTTAA | -0.0548
191 | ATGATTG | -0.0182
192 | CGGATGA | -0.149
193 | TAGCTTG | -0.134
194 | GTCGTAA | 0.214
195 | CCGGACA | -0.136
196 | TGTTCCA | -0.0551
197 | GCACGCT | 0.0722
198 | ACAATGG | 0.00695
199 | TCGGATA | -0.021
200 | CCCGCCT | -0.165
